Laboratory results published in PubChem BioAssay AID1347073 (National Center for Advancing Translational Sciences (NCATS), 2019).
Out of some 45,000 compounds screened, about 200 (0.44%) were called active. Not shown: some 7% with an inconclusive outcome. Calls come from the whole dose curve; as a rule, active = well fitted activation curve with a large enough effect; inconclusive = small, poorly fitted or top-dose-only effect; inactive = no such curve, though single readings can be large or run the other way. This is one part of the list.

Test: qHTS of TDP-43 Inhibitors: NCGC Sytravon Library Screen; note: 0% is about no effect; nearly all actives have a fitted effect of over 55% in size
Settings: yeast TDP-43 toxicity rescue, BacTiter-Glo growth, 24 h; series mostly up to 46.1 µM; growth rescue (activation): at the top concentration
Method in brief: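 TDP-43-expressing yeast, pregrown in raffinose, seeded at OD600 0.02 in galactose medium with compound for 24 hr at 30 deg C. Growth read by BacTiter-Glo luminescence, so rescue of toxicity appears as activation.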

SMILES | growth rescue (activation)
COc1ccc(S(=O)(=O)N(C)C)cc1NC(=O)CN1C(=O)NC2(CCCC2)C1=O | inactive: -12.9%
Cc1ccc(-n2c(=O)c3sccc3n(Cc3cc(=O)n4ccccc4n3)c2=O)cc1 | inactive: 7.43%
O=C(Nc1ccc(Cl)cn1)c1ccc(Oc2ccccc2)cc1 | inactive: -0.23%
CNC(=O)N(O)C1N(/N=C/c2cccnc2)C(=S)SC1(C)C (stereo not given) | inactive: 3.07%
COc1ccc(-c2csc3nc(-c4cccnc4)nc(Cl)c23)cc1OC | inactive: 20.5%
CCOC(=O)CN(C)C(=O)CCc1nnc(-c2ccsc2)o1 | inactive: 7.98%
COCCNc1nc2sc3c(c2c(=O)n1Cc1ccco1)CCCCC3 | inactive: 14%
Nc1c2c3c(sc2nc(=O)n1N)CCCC3 | inactive: 7.48%
COc1ccccc1OC(C)C(=O)Nc1ccc2c(c1)OCCO2 (stereo not given) | inactive: 30.8%
COc1cccc(NC(=S)NCc2ccncc2)c1 | inactive: -22.2%
CC(C)(C)c1cc(NCCCn2ccnc2)n2ncc(-c3ccccc3)c2n1 | inactive: 22.3%
CCCCCN(C(=O)CCCSc1nncs1)c1c(N)n(CCCC)c(=O)[nH]c1=O | inactive: 4.69%
CC(C)N1CCC(C)(C(=O)Nc2cccc(Oc3ccccc3)c2)C1 (stereo not given) | inactive: 9.6%
N#CC(c1ccccc1)c1cccc(Cl)n1 (stereo not given) | inactive: -1.05%
COc1ccc(C(=O)NC2CC2)cc1OC1CCN(Cc2cnn(C)c2C)CC1 | inactive: 13.6%
Clc1cccc(Cl)c1CSc1nnc([C@@H]2CCCN2)o1 | inactive: 9.95%
COCCn1c(=O)c2ccccc2c2ccccc2c1=O | inactive: 18.4%
NC(=O)Cc1nc(-c2ccc([N+](=O)[O-])cc2)cs1 | inactive: 9.61%
CCOC(=O)c1cc(-c2ccc3c(c2)OCCO3)nc2c1c(C)nn2CCC#N | inactive: -1.39%
COC(=O)c1cc(-c2cccc([N+](=O)[O-])c2)c2c(=O)[nH]c(=O)n(C)c2n1 | inactive: -14.6%
CN(C)S(=O)(=O)c1ccc(C(=O)NCc2ccco2)cc1 | inactive: -3.51%
CCOc1cc(NC(=S)NCCCN2CCOCC2)c(OCC)cc1NC(=O)c1ccc(C)cc1 | inactive: 7.44%

SMILES | growth rescue (activation)
CC1=CN2C(=N)/C(=C/c3ccco3)C(=O)N=C2S1 | inactive: -11.8%
CCOC(=O)C1=C(c2ccc(OC)cc2)C(=O)c2ccccc2C1=O | inactive: 0.678%
COc1ccc(CCNc2ccc(N3C(=O)CC(C)C3=O)cc2[N+](=O)[O-])cc1 (stereo not given) | inactive: 11.8%
CCN(CC)S(=O)(=O)c1ccc2c(c1)N(CC(=O)N1CCCC1)C(=O)CO2 | inactive: -13.2%
Cc1ccc(Nc2nnc(SCC(=O)Nc3cccc(S(=O)(=O)N4CCCCC4)c3)s2)cc1 | inactive: -5.27%
COc1ccc(CNC(=O)CN(C(=O)CCC(=O)Nc2nccs2)c2cccc(C)c2)cc1 | inactive: 4.13%
O=C(CSc1ccc(Cl)cc1)OCC(=O)N1CCN(c2ccccc2)CC1 | inactive: -3.73%
Cc1ccc(S(=O)(=O)CCC(=O)OCc2ccc(S(=O)(=O)C(C)C)cc2)cc1 | inactive: 1.99%
CCOC(=O)c1ccc(NC(=O)N2CCN(Cc3ccccc3)CC2)cc1 | inactive: -3.08%
Fc1ccc(OCc2nnc(-c3ccccc3Br)o2)c(Cl)c1 | inactive: 9.62%
CC(C)Oc1cccc(C(=O)C2CCCN(Cc3cnc(N4CCOCC4)s3)C2)c1 (stereo not given) | inactive: 6.4%
Cc1ccc(C)c(N2CCN(C(=O)c3cc(S(=O)(=O)N4CCOCC4)ccc3F)CC2)c1 | inactive: 9.56%
Cc1c(C(=O)OCC(=O)NCC2CCCO2)cccc1[N+](=O)[O-] (stereo not given) | inactive: 5.33%
c1cc(-c2cc3nc(NCC4CC4)ccn3n2)ccc1OCCN1CCOCC1 | inactive: 2.91%
Cc1ccc(CNC(=O)CSc2ncn[nH]2)cc1 | inactive: 9.48%
COc1ccc(C(C(=O)NC2CCCC2)N(Cc2cccnc2)C(=O)Cc2cccs2)cc1OC (stereo not given) | inactive: -9.1%
NC(=O)C1CCN(S(=O)(=O)c2ccc3c(c2)OCCO3)CC1 | inactive: -16.8%
CC(NC(=O)C(C)N1CCN(Cc2ccccc2)CC1)c1ccccc1 (stereo not given) | inactive: 0.531%
CNc1cnc(-c2ccccc2OC)cn1 | inactive: 5.7%
Cc1ccc(-n2c(SCC(=O)N3c4ccccc4Sc4ccccc43)nnc2-c2ccncc2)cc1 | inactive: 26.7%
CCCNC(=O)C1(C)CCN(Cc2cc(C(F)(F)F)ccc2Cl)C1 (stereo not given) | inactive: 5.81%
O=C(COc1ccc(Br)cc1)Nc1ccncc1 | inactive: -18.6%

SMILES | growth rescue (activation)
CCN(CC(=O)NCc1ccc(Cl)cc1)C(=O)c1cnc(Cl)c(Cl)c1 | inactive: 2.96%
CCC(CC)N=C1NS(=O)(=O)c2cc([N+](=O)[O-])ccc21 | inactive: 19.6%
CC(C)(C)Nc1scc(-c2ccccc2)[n+]1-c1ccccc1 | inactive: 4.56%
COCCNC(=O)Cn1cc(S(=O)(=O)N2CCN(c3ccccc3F)CC2)c2ccccc2c1=O | inactive: -1.65%
CCn1cc(C(=O)OCC(=O)Nc2ccc(C(C)C)cc2)c(=O)c2ccc(C)nc21 | inactive: 19.1%
O=C(c1ccccc1O)N1CCOCC1 | inactive: 0.381%
CC1(c2cccc(Br)c2)NC(=O)N(CC(=O)Nc2ccc(F)cc2)C1=O (stereo not given) | inactive: 0.321%
CCCOc1ccc(C2NC(=S)NC(c3ccccc3)=C2C(=O)Nc2ccc(C)cc2)cc1OC (stereo not given) | inactive: 23.5%
COc1cc(/C=N/Nc2nc(C)cc(=O)[nH]2)ccc1OC(=O)c1cccnc1 | inactive: -10.2%
O=C1CSC(=Nc2ccccc2[N+](=O)[O-])N1 | inactive: 14.2%
N/C(Cc1ccc(Cl)cc1Cl)=N\OC(=O)c1ccccc1F | inactive: -93.3%
CS(=O)(=O)N1CCN(C(=O)Cc2ccccc2Cl)CC1 | inactive: -2.06%
O=C(CS(=O)(=O)c1ccc(Cl)cc1)NCCS(=O)(=O)c1ccc(Cl)cc1 | inactive: -2.27%
Cc1ccc2c(c1)N(CC(=O)N1CCOCC1)C(=O)C(C)O2 (stereo not given) | inactive: -3.55%
O=CN(CCN(C=O)CN1CCCCC1)CN1CCCCC1 | inactive: -7.45%
CCN1CN(Cc2ccccc2)CNC1=S | inactive: 13.3%
C=C(C)Cn1c(C)cc(C)c(S(=O)(=O)c2ccc(C)cc2)c1=O | inactive: 6.68%
O=C(NNC(=O)c1ccccc1Br)c1cccs1 | inactive: 4.72%
Clc1ccc(/C=N/N2CCN(Cc3ccccc3Cl)CC2)cc1 | inactive: 13.8%
COC(=O)c1cc(Nc2cc(C)c3ccc(O)cc3n2)cc(C(=O)OC)c1 | inactive: 6.76%
O=c1ccnc(Nc2ccc3c(c2)OCCO3)[nH]1 | inactive: -11.4%
O=C(NCC1CCCO1)c1cc(-c2ccccc2)nc2ccccc12 (stereo not given) | inactive: -5.45%

SMILES | growth rescue (activation)
Cn1c(=O)c2c(nc(CO)n2C)n(C)c1=O | inactive: -35.8%
COc1ccccc1NC(=S)N1CCCC1 | inactive: -17.6%
CC(=O)c1ccccc1C(=O)N1CCC(n2nccc2NC(=O)C2CC2)CC1 | inactive: 14.7%
Cc1cc(C)n(-c2ccc([N+](=O)[O-])cc2-c2nn[nH]n2)n1 | inactive: 3.17%
O=C(NCCN1CCOCC1)c1cccnc1SCc1ccccc1Cl | inactive: 7.99%
COCCNc1nc(NCC2CCCCC2)c2sc(-c3ccccc3)cc2n1 | inactive: -1.69%
O=C(NC(=S)NCc1ccccc1)c1ccccc1[N+](=O)[O-] | inactive: 17.3%
Cc1ccc(/C=C2/SC(=O)NC2=S)o1 | inactive: -26.9%
COc1cc(C(=O)N2CCCCC2c2cc(C(=O)N3CCOCC3)no2)cc(OC)c1C (stereo not given) | inactive: 1.26%
CCOC(=O)c1ccc(N2CCN(c3cc(C)ccc3C)CC2)c(N)c1 | inactive: 15.1%
O=C(O)c1nn2cc(CCO)cnc2c1Cl | inactive: 3.55%
CS(=O)(=O)N1CCN(C(=S)NCc2ccc(F)cc2)CC1 | inactive: -4.15%
Cn1cc(C=C2C(=O)CC(C)(C)CC2=O)c2ccccc21 | inactive: 4.42%
CCOC(=O)CC(NC(=O)c1cccc2c1C(=O)N(Cc1cccnc1)C2)c1ccc(OCC)c(OC)c1 (stereo not given) | inactive: -5.46%
COc1ccccc1CNCC(=O)Nc1ccc(C#N)cc1 | inactive: 1.84%
Nc1cc(=O)[nH]c(SCCSc2ccc(F)cc2)n1 | inactive: -0.177%
COc1ccc(-c2cc3nc(NCc4ccc(N(C)C)cc4)n(C)c(=O)c3s2)cc1OC | inactive: 18.7%
CCC(NC(=O)Nc1nccs1)(C(F)(F)F)C(F)(F)F | inactive: 18.1%
O=C(Cc1ccccc1)NCC(=O)Nc1ccc(OC(F)(F)F)cc1 | inactive: 6.62%
COc1cc(S(=O)(=O)n2ccc(C)n2)ccc1Cl | inactive: 8.41%
C=CCOc1ccc2c3c(c(=O)oc2c1)CCCC3 | inactive: -4.71%
O=C(O)C1CSC2(c3ccc(F)cc3)CCC(=O)N12 (stereo not given) | inactive: 2.44%

SMILES | growth rescue (activation)
Cc1ccc(NC(=O)COC(=O)CCc2c(C)nc3ncnn3c2C)cc1C | inactive: 12.1%
CN(CC(=O)Nc1ccc(N2CCOCC2)cc1)CC(=O)Nc1ccc([N+](=O)[O-])cc1Br | inactive: 3.96%
C#CC(C)(CC)NC(=O)Cn1nnc(-c2ccc(OCc3c(F)cccc3Cl)cc2)n1 (stereo not given) | inactive: 2.54%
COc1ccc2[nH]c(=O)c(CN(C)C(=O)c3cccs3)cc2c1 | inactive: -33%
COc1ccccc1CNC(=O)c1ccc2c(c1)OCO2 | inactive: 26.6%
Oc1ccc(Br)cc1/C=N/n1c(C2CCCCC2)n[nH]c1=S | inactive: -5.83%
COc1cccc2cc(C(=O)OCC(=O)N3CC(C)OC(C)C3)c(=O)oc12 (stereo not given) | inactive: 1.73%
CC(=O)N/C(=C\c1ccc(Br)s1)C(=O)O | inactive: 1.59%
O=C(COC(=O)c1ccc(O)cc1)Nc1ccccc1 | inactive: 9.41%
CCOC(=O)N1CCC(N(CCN(C)C)C(=S)Nc2cccc(C)c2)CC1 | inactive: 17.1%
COc1ccc(N(CC(=O)Nc2c(C)n(C)n(-c3ccccc3)c2=O)S(=O)(=O)c2ccc(C)cc2)cc1 | inactive: -21.2%
Cc1ccccc1OCCNC(=O)/C=C/c1ccccc1 | inactive: -19.2%
CCOc1cc(/C=C2\CN(CC)C/C(=C\c3ccc(O)c(OCC)c3)C2=O)ccc1O | inactive: 7.9%
O=C(Nc1ccc(Br)cc1)C1C2C=CC3(O2)C1C(=O)N(CCN1CCCCC1)C3C(=O)NC1CCCCC1 (stereo not given) | inactive: 11.9%
Cc1ccc(CN2CCN(Cc3cccn3-c3nccs3)CC2CCO)cc1 (stereo not given) | inactive: 6.74%
CCOc1ccc(NC(=O)CN(C)C(=O)C2COc3ccccc3O2)cc1OCC (stereo not given) | inactive: -11.9%
Cc1ccccc1NS(=O)(=O)c1cc(C(=O)N2CCCC2)ccc1Cl | inactive: 1.44%
CCOC(=O)C1(Cc2ccccc2Cl)CCN(Cc2csc(C(C)=O)c2)CC1 | inactive: 5.39%
COc1cccc(-c2nc(-c3ccc(Br)o3)no2)c1 | inactive: 5.15%
COc1ccc(CC(=O)NCC2CCCN(Cc3cccc(SC)c3)C2)cc1 (stereo not given) | inactive: 0.87%
Cc1ccc(NC(=O)C2C3C=CC4(O3)C2C(=O)N(CCCN2CCCC(C)C2)C4C(=O)NC2CCCCC2)cc1 (stereo not given) | inactive: 8.1%
O=C(CSc1nnc2ccccn12)Nc1cccc(-c2nc3ccccc3s2)c1 | inactive: 24.5%
